Measurements published in paper PMC6265344.
Results are given in words; binding and its absence hold for the method and conditions named. Binding seen in cells or lysates may run through a third protein. Some entries that bind do so weakly or less than the wild type. For part of these data: Where a sequence is shown, tags or fusion partners need not be part of it. One block for each molecule: values may come before it.

Amino acid sequences for entries named in this document (tags omitted).
UniProt Q05639: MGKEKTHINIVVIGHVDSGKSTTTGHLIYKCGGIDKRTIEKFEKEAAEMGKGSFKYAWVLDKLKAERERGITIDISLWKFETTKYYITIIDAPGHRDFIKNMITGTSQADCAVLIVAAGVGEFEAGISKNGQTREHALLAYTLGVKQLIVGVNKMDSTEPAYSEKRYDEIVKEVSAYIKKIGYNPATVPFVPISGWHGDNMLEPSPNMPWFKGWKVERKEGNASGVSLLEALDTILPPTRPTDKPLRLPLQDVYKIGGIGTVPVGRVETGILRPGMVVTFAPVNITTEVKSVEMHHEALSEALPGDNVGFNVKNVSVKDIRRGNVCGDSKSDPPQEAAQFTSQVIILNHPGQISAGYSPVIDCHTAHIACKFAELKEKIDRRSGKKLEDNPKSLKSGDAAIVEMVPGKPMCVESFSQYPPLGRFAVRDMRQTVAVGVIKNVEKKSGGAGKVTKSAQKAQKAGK
UniProt P68104: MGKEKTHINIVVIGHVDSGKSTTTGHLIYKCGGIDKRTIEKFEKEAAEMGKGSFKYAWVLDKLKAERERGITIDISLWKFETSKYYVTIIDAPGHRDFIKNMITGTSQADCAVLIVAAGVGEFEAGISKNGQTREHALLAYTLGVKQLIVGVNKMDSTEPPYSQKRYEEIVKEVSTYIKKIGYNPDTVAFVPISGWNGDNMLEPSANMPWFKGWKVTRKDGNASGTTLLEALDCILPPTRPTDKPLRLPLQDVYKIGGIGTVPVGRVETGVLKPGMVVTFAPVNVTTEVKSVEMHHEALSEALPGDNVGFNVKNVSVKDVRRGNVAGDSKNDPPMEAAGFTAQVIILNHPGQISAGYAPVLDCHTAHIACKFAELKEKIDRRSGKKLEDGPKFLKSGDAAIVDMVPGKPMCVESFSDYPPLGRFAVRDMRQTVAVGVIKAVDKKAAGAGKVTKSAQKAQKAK
UniProt P19525: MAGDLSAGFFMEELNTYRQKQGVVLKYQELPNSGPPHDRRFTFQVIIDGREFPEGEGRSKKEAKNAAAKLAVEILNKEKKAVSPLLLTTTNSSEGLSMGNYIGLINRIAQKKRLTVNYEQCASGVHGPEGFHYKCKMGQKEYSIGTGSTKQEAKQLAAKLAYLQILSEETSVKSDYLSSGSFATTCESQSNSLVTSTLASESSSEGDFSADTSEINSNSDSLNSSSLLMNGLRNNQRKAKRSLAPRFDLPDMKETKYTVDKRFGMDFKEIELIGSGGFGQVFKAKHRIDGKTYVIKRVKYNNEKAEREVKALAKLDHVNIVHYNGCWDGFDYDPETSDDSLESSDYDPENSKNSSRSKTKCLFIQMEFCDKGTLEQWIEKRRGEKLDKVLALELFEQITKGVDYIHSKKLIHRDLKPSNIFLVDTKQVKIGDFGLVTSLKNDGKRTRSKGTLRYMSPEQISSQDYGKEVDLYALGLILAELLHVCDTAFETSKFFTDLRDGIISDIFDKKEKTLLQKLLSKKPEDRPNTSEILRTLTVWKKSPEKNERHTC
UniProt Q9NYA1: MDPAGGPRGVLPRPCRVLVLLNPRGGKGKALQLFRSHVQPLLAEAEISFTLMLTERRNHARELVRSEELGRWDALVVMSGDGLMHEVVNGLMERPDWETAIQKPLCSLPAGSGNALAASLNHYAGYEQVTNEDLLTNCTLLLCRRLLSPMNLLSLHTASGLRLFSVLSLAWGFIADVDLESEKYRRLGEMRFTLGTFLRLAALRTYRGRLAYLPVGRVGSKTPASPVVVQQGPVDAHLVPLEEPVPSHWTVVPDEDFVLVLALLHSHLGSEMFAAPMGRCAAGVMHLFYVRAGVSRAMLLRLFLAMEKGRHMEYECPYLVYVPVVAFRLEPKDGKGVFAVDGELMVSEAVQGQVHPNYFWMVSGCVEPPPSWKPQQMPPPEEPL

How the values were obtained:
[1] = biological target: eEF1A2 (endogenous, HeLa wt cells) (human (endogenous in HeLa)) (UniProt Q05639); test: proximity ligation; Duolink PLA in HeLa wt cells treated with vehicle (0.1% DMSO) for 1 h; anti-eEF1A2 and anti-PKR antibodies; fluorescence microscopy
[2] = biological target: eEF1A2 (endogenous, HeLa wt cells) (human (endogenous in HeLa)) (UniProt Q05639); test: condition: only cells incubated for 1 h with 450 nM plitidepsin; proximity ligation; Duolink PLA in HeLa wt cells treated with 450 nM plitidepsin for 1 h; fluorescence microscopy
eEF1A2-tGFP (human) [3] = biological target: eEF1A2-tGFP (human) (UniProt Q05639); test: condition: only cells treated with 450 nM plitidepsin; co-IP; as a2, but eEF1A2-tGFP HeLa cells treated with 450 nM plitidepsin for different times before lysis; IP with anti-tGFP or anti-PKR antibodies; band densitometry
eEF1A1-tGFP = eEF1A1-tGFP (UniProt P68104); test: co-IP; whole extracts of wt, eEF1A1-tGFP or eEF1A2-tGFP HeLa cells (1% Triton X-100, 50 mM Tris-HCl pH 7.4, 150 mM NaCl, 1 mM EDTA); IP overnight at 4 °C with anti-tGFP or anti-PKR antibody-coated beads; Western blot with PKR or tGFP antibodies
eEF1A2-tGFP (human) [4] = biological target: eEF1A2-tGFP (human) (UniProt Q05639); test: as above
[5] = biological target: Interferon-induced, double-stranded RNA-activated protein kinase (PKR) (human (endogenous in HeLa)) (UniProt P19525); test: as above
[6] = biological target: Interferon-induced, double-stranded RNA-activated protein kinase (PKR) (human (endogenous in HeLa)) (UniProt P19525); test: condition: only cells treated with 450 nM plitidepsin; co-IP; as a2, but eEF1A2-tGFP HeLa cells treated with 450 nM plitidepsin for different times before lysis; IP with anti-tGFP or anti-PKR antibodies; band densitometry
eEF1A2-tGFP (human) [7] = biological target: eEF1A2-tGFP (human) (UniProt Q05639); test: co-IP; extracts of HeLa cells ectopically overexpressing human eEF1A2-tGFP and myc-tagged PRDX1, SPHK1 or SPHK2; the bait of the IP is not given; the SPHK1 and SPHK2 interactions were also tested after plitidepsin treatment (not affected)
eEF1A2-tGFP (human) [8] = biological target: eEF1A2-tGFP (human) (UniProt Q05639); test: co-IP; as a6 for eEF1A2-tGFP and myc-PRDX1, with cells treated with plitidepsin over time before lysis

binding [1]: binds | binding [2]: no binding | binding (eEF1A2-tGFP (human) [3]): no binding | binding (eEF1A1-tGFP): no binding | binding (eEF1A2-tGFP (human) [4]): binds
Molecule: Interferon-induced, double-stranded RNA-activated protein kinase (PKR) (from UniProt P19525 1-551) (enzyme)

binding [5]: no binding
Molecule: eEF1A1-tGFP (from UniProt P68104 1-462)

binding [6]: no binding | binding [5]: binds
Molecule: eEF1A2-tGFP (from UniProt Q05639 1-463)

binding (eEF1A2-tGFP (human) [7]): binds
Molecule: myc-tagged human SPHK1 (from UniProt Q9NYA1 1-384) (enzyme)

binding (eEF1A2-tGFP (human) [7]): binds
B1: myc-tagged human SPHK2 (enzyme, UniProt Q9NRA0 1-654)
chain: MNGHLEAEEQQDQRPDQELTGSWGHGPRSTLVRAKAMAPPPPPLAASTPLLHGEFGSYPARGPRFALTLTSQALHIQRLRPKPEARPRGGLVPLAEVSGCCTLRSRSPSDSAAYFCIYTYPRGRRGARRRATRTFRADGAATYEENRAEAQRWATALTCLLRGLPLPGDGEITPDLLPRPPRLLLLVNPFGGRGLAWQWCKNHVLPMISEAGLSFNLIQTERQNHARELVQGLSLSEWDGIVTVSGDGLLHEVLNGLLDRPDWEEAVKMPVGILPCGSGNALAGAVNQHGGFEPALGLDLLLNCSLLLCRGGGHPLDLLSVTLASGSRCFSFLSVAWGFVSDVDIQSERFRALGSARFTLGTVLGLATLHTYRGRLSYLPATVEPASPTPAHSLPRAKSELTLTPDPAPPMAHSPLHRSVSDLPLPLPQPALASPGSPEPLPILSLNGGGPELAGDWGGAGDAPLSPDPLLSSPPGSPKAALHSPVSEGAPVIPPSSGLPLPTPDARVGASTCGPPDHLLPPLGTPLPPDWVTLEGDFVLMLAISPSHLGADLVAAPHARFDDGLVHLCWVRSGISRAALLRLFLAMERGSHFSLGCPQLGYAAARAFRLEPLTPRGVLTVDGEQVEYGPLQAQMHPGIGTLLTGPPGCPGREP

binding (eEF1A2-tGFP (human) [7]): binds
B2: myc-tagged human PRDX1 (enzyme, UniProt Q06830 1-199)
chain: MSSGNAKIGHPAPNFKATAVMPDGQFKDISLSDYKGKYVVFFFYPLDFTFVCPTEIIAFSDRAEEFKKLNCQVIGASVDSHFCHLAWVNTPKKQGGLGPMNIPLVSDPKRTIAQDYGVLKADEGISFRGLFIIDDKGILRQITVNDLPVGRSVDETLRLVQAFQFTDKHGEVCPAGWKPGSDTIKPDVQKSKEYFSKQK
binding (eEF1A2-tGFP (human) [8]): no binding (condition: cells treated with plitidepsin)
